# According to PubChem BioAssay AID624296 (National Center for Advancing Translational Sciences (NCATS), 2012):
# Among all 350,000 compounds or so, about 9,900 (2.8%) were called active. Inconclusive means that the source gave no clear call. Such entries were picked first, then a sample of the others. The call rests on the fitted dose curve; in most records, active means well fitted activation curve with a large enough effect; inconclusive means small, poorly fitted or top-dose-only effect; inactive means no such curve, though single readings can be large or run the other way. Potencies of inconclusive entries are left out as doubtful fits.
# Assay: A quantitative high throughput screen for small molecules that induce DNA re-replication in MCF 10a normal breast cells. Further: nearly all actives have a fitted effect of over 50% in size.
# Conditions: MCF 10A DNA re-replication, Hoechst nuclear intensity, 48 h; series mostly up to 46.1 µM
# Potency means the concentration at half of the fitted maximal effect; tags describe the fitted curve by direction and shape.
row,Compound,Potency
1,Cc1csc(NC(=O)CSc2nnc(CCNC(=O)c3cccs3)n2C)n1,inactive
2,CCOc1nc(-c2ccccc2)c2cc(Br)ccc2n1,inactive
3,CCCc1c(OCCCOc2ccc(OCC(=O)O)cc2)ccc(C(C)=O)c1O,"inconclusive [activator, single point]"
4,O=C(/C=C/c1ccc(Cl)cc1Cl)NC(=S)Nc1ccc(CN2CCOCC2)cc1,"inconclusive [activator, partial curve]"
5,Cc1ncsc1CCOC(=O)C1C2CC3CC(C2)CC1C3 (configuration not stated),"inconclusive [activator, full curve, poor fit]"
6,CCCCCC(=O)Nc1nc(C)c(-c2csc(Nc3ccccc3OC)n2)s1,"inconclusive [activator, single point]"
7,CCCn1c(SCC(=O)c2ccc3c(c2)NC(=O)CO3)nc2ccccc21,"inconclusive [activator, full curve]"
8,COc1cc(/C=N\NC(=O)c2ccc(-c3ccccc3)cc2)cc(OC)c1OC(C)=O,"inconclusive [activator, single point]"
9,COc1ccc(OC)c(NC(=O)Nc2ccc(Cl)cc2)c1,"inconclusive [activator, full curve, poor fit]"
10,COc1cccc(NC(=O)CSc2nc3c(sc4ccccc43)c(=O)n2CCCN2CCCC2)c1,active: 18.4 µM
11,Nc1cccnc1Sc1cccc(Cl)c1,"inconclusive [activator, partial curve, poor fit]"
12,CCCCN(CC)Cc1ccc(CNC(=O)Nc2ccc(F)cc2)o1,inactive
13,COc1ccc(NC(=O)N2c3ccc(OC)cc3C(C)=CC2(C)C)cc1,active: 20.6 µM
14,O=C(O)CCN1C(=O)S/C(=C\c2cccnc2)C1=O,"inconclusive [activator, partial curve, poor fit]"
15,CCn1c(O)c(/C=N/N=C/c2ccccc2)c2ccc(C3=NNC(=O)CC3)cc21,active: 16.4 µM
16,CC(/C=N/Nc1nc(C)cc(C)n1)=C\c1ccc(C(C)C)cc1,inactive
17,CCOc1ccc2nc(N3C(=O)/C(=C/c4ccccc4)NC3=S)sc2c1,"inconclusive [activator, partial curve, poor fit]"
18,COc1ccccc1CCC(=O)N(C)CC(=O)Nc1ccc(F)cc1,inactive
19,COc1ccc(-c2cc(C(=O)N/N=C/c3cccnc3)c3ccccc3n2)cc1,"inconclusive [activator, partial curve, poor fit]"
20,Cc1ccc2nc(C)c3c(c2c1)N(c1ccccc1)CC3,"inconclusive [activator, partial curve, poor fit]"
21,CC(=O)NC(=S)Nc1ccc(NC(=S)NC(=O)/C=C/c2ccco2)cc1,inactive
22,CC1CCc2nc(NC(=O)CN3CCN(Cc4ccc5c(c4)OCO5)CC3)sc2C1 (configuration not stated),active: 13 µM
23,CCSc1nccc(-c2nn(-c3ccc(C)cc3)ccc2=O)n1,active: 5.17 µM
24,CCOc1ccc(CN(Cc2ccco2)S(=O)(=O)c2ccc(-n3cnnn3)c(OC)c2)cc1,"inconclusive [activator, single point]"

row,Compound,Potency
1,Cc1ccc(C(=O)NC(=S)N2CCN(C)CC2)cc1Br,inactive
2,Cc1cc(C(=O)N(C2CCCCC2)C2CCCCC2)no1,inactive
3,S=C(NCc1ccccc1)N1CCN(C2CCCCC2)CC1,"inconclusive [activator, single point]"
4,Cc1ccc(S(=O)(=O)CCC(=O)OCC(=O)N2CCN(S(=O)(=O)c3ccc(Cl)cc3)CC2)cc1,"inconclusive [activator, single point]"
5,S=C(N/N=C/c1ccc2ncccc2c1)Nc1ccccc1,inactive
6,O=C(NNC(=S)Nc1ccc(F)cc1)C1CC1c1ccc(Cl)cc1 (configuration not stated),"inconclusive [activator, partial curve, poor fit]"
7,COc1cccc(-c2nnc3n2N=C(C(C)(C)C)CS3)c1,"inconclusive [activator, partial curve]"
8,COc1cc(S(=O)(=O)Nc2cccc(C)c2)ccc1NC(=O)c1ccncc1,"inconclusive [activator, partial curve]"
9,Cc1ccc2cc(CN(c3cccc(C)c3C)S(=O)(=O)c3ccccc3)c(=O)[nH]c2c1,inactive
10,CCOC(=O)N1CCN(c2nc(-c3ccc(F)cc3)cs2)CC1,"inconclusive [activator, partial curve]"
11,Oc1ccc(CNc2ccccc2)c2cccnc12,"inconclusive [activator, partial curve, poor fit]"
12,COc1ccc(N2CC(O)=C(c3nc(-c4ccc(Cl)cc4)cs3)C2=N)cc1,"inconclusive [activator, single point]"
13,Fc1ccc(C(CCCn2nnc(-c3cccnc3)n2)c2ccc(F)cc2)cc1,"inconclusive [activator, single point]"
14,Cc1cc(C)c2nc(N3CCOCC3)c(C#N)cc2c1,"inconclusive [activator, single point]"
15,O=C(CC1SC(=O)N(Cc2cccc3ccccc23)C1=O)Nc1nccs1 (configuration not stated),"inconclusive [activator, partial curve, poor fit]"
16,O=c1c2cc(N3CCOCC3)ccc2[nH]c(=S)n1Cc1ccccn1,"inconclusive [activator, partial curve, poor fit]"
17,COc1cc2c(cc1OC)CN(C(=O)COc1ccc(C#N)cc1)CC2,"inconclusive [activator, full curve, poor fit]"
18,NS(=O)(=O)c1ccc(NC(=O)COC(=O)CSCc2ccc(F)cc2)cc1,inactive
19,COc1cc(C(=O)c2ccc3c(c2)OCO3)cc(OC)c1OC,"inconclusive [activator, partial curve, poor fit]"
20,CC(=O)C1C(c2cccc(F)c2)c2c(n[nH]c2C)CC1(C)O (configuration not stated),"inconclusive [activator, partial curve, poor fit]"
21,Cc1ccn2c(NC3CCCCC3)c(-c3cccc(SC4CCCCC4)c3)nc2c1,"inconclusive [activator, partial curve, poor fit]"
22,COc1ccc(C2Nc3ccccc3C(=O)N2Cc2ccccc2)cc1CN1CCOCC1 (configuration not stated),"inconclusive [activator, partial curve, poor fit]"
23,NNc1nc2ccc(Cl)cc2s1,active: 20.6 µM
24,COC(=O)Cn1c(=O)c2c(n(Cc3ccccc3)c1=O)N/C(=C/c1ccc(Br)cc1)C2=O,active: 4.61 µM

row,Compound,Potency
1,C#CCNC(=O)C1=C[C@H](C(C)(C)C)C[C@H](OCCCCO)O1,inactive
2,O=c1nc(Nc2ccc([N+](=O)[O-])cc2)[nH]c(=O)[nH]1,inactive
3,Cc1ccc(NC(=O)CCn2c(=O)oc3ccccc32)c(C)c1,inactive
4,O=C1NCC(Nc2ccc(Br)cc2)C(=O)N1 (configuration not stated),inactive
5,CC(C)=CCC/C(C)=C/CNC(=O)CC1C[C@H](C(=O)N2CCOCC2)[C@@]2(C)c3[nH]c4ccccc4c3CCN2C1=O (some centres not stated),"inconclusive [activator, full curve]"
6,CCCOc1ccc(CNC(=O)c2ccc3c(c2)N(CC)CCS3)cc1,inactive
7,CC(=O)NN1C(=O)c2ccccc2NC1c1ccccc1O (configuration not stated),inactive
8,CCn1cc(CN2CCC(Oc3ccc(C(=O)N4CCCCC4)cc3)CC2)cn1,"inconclusive [activator, full curve, poor fit]"
9,Nc1c(S(=O)(=O)c2cccs2)c2nc3ccccc3nc2n1Cc1ccc2c(c1)OCO2,inactive
10,C/C(=N\NC(=O)c1c[nH]c2ccccc12)c1ccc(C)s1,inactive
11,Cc1nc(/N=C(\N)N(C)C)[nH]c(=O)c1C,inactive
12,CC(=O)c1ccc(NC(=O)C(C)NCc2ccc(Cl)cc2)cc1 (configuration not stated),"inconclusive [activator, single point]"
13,O=c1c2oc3ccccc3c2ncn1Cc1cccc(Cl)c1,"inconclusive [activator, single point]"
14,O=c1c2ccccc2[nH]c(=S)n1CCN1CCC(=C(c2ccc(F)cc2)c2ccc(F)cc2)CC1,active: 18.4 µM
15,Cc1ccc(Cn2ccc(=O)c(OCc3c(Cl)cccc3Cl)c2C)cc1,"inconclusive [activator, single point]"
16,CN1C(=O)c2ccc(NC(=O)C3CCCCC3)cc2C1=O,active: 10.3 µM
17,COc1cc2cc(CCCOC(=O)c3ccc(F)cc3)oc(=O)c2cc1OC,"inconclusive [activator, full curve, poor fit]"
18,CCN(CC)c1nc2c(c(=O)[nH]c(=O)n2C)n1CCCc1ccccc1,"inconclusive [activator, partial curve, poor fit]"
19,C/C(=N\OCC(=O)N/N=C/c1ccc(C)cc1O)c1cccs1,active: 4.11 µM
20,CCOc1ccccc1NC(=O)C1CCN(S(C)(=O)=O)CC1,inactive
21,CCOC(=O)C1CCN(C(=O)C2(NC(=O)Nc3ccc(F)cc3F)CCCCC2)CC1,"inconclusive [activator, single point]"
22,O=C(COC(=O)c1ccc(F)c([N+](=O)[O-])c1)NC(=O)NCc1ccccc1,active: 20.6 µM
23,CC(C)CC(COCc1ccc(Cl)cc1)N1CCN(C(=O)c2ccc(Cl)cc2Cl)CCC1=O (configuration not stated),"inconclusive [activator, single point]"
24,O=C(c1ccc(COc2ccc(F)cc2)o1)n1cc(Br)cn1,"inconclusive [activator, partial curve, poor fit]"
